The values that follow come from PubChem BioAssay AID1508624 (National Center for Advancing Translational Sciences (NCATS), 2021).

About 120 (0.25%) of roughly 48,000 compounds were called active. Inconclusive results (about 4%) are left out. Calls come from the whole dose curve; as a rule, active = well fitted activation curve with a large enough effect; inconclusive = small, poorly fitted or top-dose-only effect, or another doubt; inactive = no such curve, though single readings can be large or run the other way. The list shows a part of the results, in another mix than the full data. The source gives no active or inactive call for entries shown without one.
Potency is the fitted concentration of half-maximal effect.

The assay can be described thus: Primary qHTS for Identification of Small Molecule Activators of Huntingtin-Antisense Promoter Activity. Note: nearly all actives have a fitted effect of over 55% in size. The note with it: HEK293 HTT-AS promoter firefly luciferase reporter, 24 h; activity change, positive = activation: at 57.5 µM (top of the series), percent change from vehicle, -100% = no light. Summed up: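 Firefly luciferase signal from promoter-reporter HEK293 cells was scaled between vehicle (0%) and zero RLU (-100%). Compounds were tested at final concentrations of up to 57.5 uM over 24 h at 37 degrees C. PTC124 at 50 uM final served as control inhibitor.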
With `Cc1ccc(COc2cccc3cc(-c4noc(-c5ccc(C)cc5)n4)c(=O)oc23)cc1`, the “activity change, positive = activation” value was inactive: 0.114%.

On to `CCOc1ccc(CCNC(=O)Cn2nc(CC)n3c(cc4c(OC)cccc43)c2=O)cc1OCC`, for which the activity change, positive = activation is -7.65%.

As to `CCc1nn2c(=O)c(S(=O)(=O)Nc3ccc(C)cc3C)c(C)nc2s1`, the activity change, positive = activation is -23.3%.

`Cc1cc(Cl)ccc1NC(=O)CCS(=O)(=O)c1ccc2c(c1)CC(C)N2C(=O)C1CC1` (stereo unspecified): the activity change, positive = activation is -20.1%.

Take `O=C(Nc1cc(Cl)ccc1O)c1cc(-c2ccc3c(c2)OCO3)on1`: the activity change, positive = activation turned out to be 76.3%.

Take `CCOC(=O)Cn1c(=N)n(CCOc2ccc(OC)cc2)c2ccccc21`: the activity change, positive = activation was 2.36%.

Take `Cn1c(CNC(=O)CSc2nc(-c3ccccc3F)nc3cc(=O)[nH]n23)nc2ccccc21`: the activity change, positive = activation was determined as 1.3%.

With `CCCOc1ccc(C2C(=O)N(C3CCCCCC3)CC(=O)N2C(C)C)cc1OC` (stereo unspecified), the activity change, positive = activation was -2.01%.

For `CCOC(=O)CSc1nnc(-c2ccc(OC)cc2)o1`, the activity change, positive = activation is -40%.

On to `CCc1cccc(CC)c1NC(=O)c1c(C)oc2ccc(O)c(CN3CCN(C)CC3)c12`, for which the activity change, positive = activation is 2.37%.

In the case of `CCOc1ccccc1CNC(=O)c1nc(-c2ccc(Cl)cc2)n2c1CCCCC2`, the activity change, positive = activation is -40.4%.

Take `CCCOc1ccc(NC(=O)CC2C(=O)N(c3ccccc3)C(=O)N2Cc2ccc(F)cc2)cc1` (stereo unspecified): the activity change, positive = activation was -29.4%.

For `COc1ccc2c(C)c(CCC(=O)NCCc3ccc(OC)c(OC)c3)c(=O)oc2c1`, the activity change, positive = activation was -12.9%.

With `CC(=O)Nc1cc(C(=O)NCc2ccc(F)cc2)ccc1S(=O)(=O)c1ccc(C)cc1`, the “activity change, positive = activation” value was inactive: -26.1%.

For `CCOC(=O)c1ccc(NC(=O)CC2C(=O)N(c3cccc(OC)c3)C(=O)N2Cc2cccnc2)cc1` (stereo unspecified), the activity change, positive = activation is -5.17%.

For the compound `O=C(Nc1cc(C(F)(F)F)ccc1Cl)c1noc2c1CCCCC2`, the activity change, positive = activation was -2.67%.

On to `COc1ccc(-c2cc(C(=O)Nc3cccc(C(C)=O)c3)no2)cc1OC`, for which the activity change, positive = activation is 0.898%.

In the case of `N#CC1=C2SCN(C3CCCCC3)CN2C(=O)CC1c1ccc(Br)cc1` (stereo unspecified), the “activity change, positive = activation” value was inactive: -12.4%.

On to `CC1CCC(N2CC(=O)N(C3CCCCC3)C(c3ccc(Cl)cc3)C2=O)CC1` (stereo unspecified), for which the activity change, positive = activation was -10.6%.

As for `CCOc1ccccc1CNC(=O)CCc1c(C)nn(-c2ccc(N3CCCCC3)nn2)c1C`, the activity change, positive = activation was determined as 0.341%.

For `O=S(=O)(Nc1ccc(-c2ccc(N3CCCC3)nn2)cc1)c1ccc(C(F)(F)F)cc1`, the activity change, positive = activation was -4.99%.

Regarding `CCN(CC)CCOc1ccc(C(=C(Cl)c2ccccc2)c2ccccc2)cc1`, the Potency is active: 24.3 µM.

As to `O=C(NCCc1nc2ccccc2n1Cc1c(F)cccc1Cl)c1ccco1`, the activity change, positive = activation is -35%.

For `CC1CCC(N2CC(=O)N(CCC3=CCCCC3)C(c3ccc(F)cc3)C2=O)CC1` (stereo unspecified), the activity change, positive = activation is -4.06%.

As to `Cc1c(NC(=O)c2cc(-c3ccccc3O)on2)c(=O)n(-c2ccccc2)n1C`, the activity change, positive = activation is 6.82%.

With `CCCOc1ccc(NC(=O)CC2C(=O)N(c3ccc(C)cc3)C(=O)N2CCc2ccncc2)cc1` (stereo unspecified), the activity change, positive = activation was -11.6%.

Regarding `CCCC12CN3CC(C)(CN(C1)C3c1ccccc1Cl)C2=O` (stereo unspecified), the activity change, positive = activation was -0.991%.

On to `CCC1CCCCN1CCCNC(=O)c1ccc2c(c1)N(Cc1ccccc1F)C(=O)c1ccccc1S2(=O)=O` (stereo unspecified), for which the “activity change, positive = activation” value was inactive: -33.1%.

With `Cc1ccc(S(=O)(=O)Nc2cc(Cl)ccc2C(=O)Nc2nc(-c3ccccc3)cs2)cc1`, the “activity change, positive = activation” value was inactive: -16%.

With `COC(=O)c1nnn(CC(=O)Nc2cc(F)ccc2F)c1C(=O)OC`, the “activity change, positive = activation” value is inactive: -3.74%.

`CCOc1ccc(-c2cc3c(=O)n(CC(=O)NCc4ccc(OC)cc4)ccn3n2)cc1`: the Potency was active: 0.447 µM.

Turning to `CC(=O)c1cccc(NCc2ccccc2-c2nnc(-c3ccccc3)o2)c1`, the activity change, positive = activation was 35.3%.

Consider `CCOc1ccc(S(=O)(=O)N2CCC(N3CCN(Cc4ccc(F)cc4)C(=O)C3=O)CC2)cc1`, for which the activity change, positive = activation is -11.2%.

`CCOc1ccc(C(=O)NCCc2sc(-c3cccc(F)c3)nc2C)cc1OCC`: the “activity change, positive = activation” value is inactive: -23.3%.

Take `Cc1cc(C)c(NC(=O)Nc2sc3nc4n(c(=O)c3c2C)CCC(C)CC4)c(C)c1` (stereo unspecified): the activity change, positive = activation is -10.8%.

Regarding `Cc1cc(C)cc(Nc2ncnc3sc4c(c23)CCCC4)c1`, the “activity change, positive = activation” value is inactive: -15.7%.

Consider `COc1ccc2cc(-c3nc(-c4ccc(S(C)=O)cc4)[nH]c3-c3ccncc3)ccc2c1` (stereo unspecified), for which the “activity change, positive = activation” value is inactive: -18.5%.

Take `O=C(c1cc(-c2cccc(Cl)c2)on1)N1CCN(c2ccccc2)CC1`: the activity change, positive = activation was 2.39%.

Regarding `Cc1cccc(N2C(=O)C(CC(=O)Nc3ccc(Cl)cc3)N(Cc3ccco3)C2=O)c1` (stereo unspecified), the activity change, positive = activation was -21.8%.

For the compound `Cc1oc2ccc(O)c(CN3CCN(C)CC3)c2c1C(=O)Nc1cccc(Cl)c1C`, the activity change, positive = activation came to 0.135%.

Turning to `Cc1cc(-c2ccc(CC(=O)Nc3ccc(-c4cccnc4)cc3)cc2)ccn1`, the “activity change, positive = activation” value is inactive: -32.5%.

For `Cn1c(=O)c2cc(C(=O)NCCCN3CCN(c4cccc(Cl)c4)CC3)sc2c2ccccc21`, the “activity change, positive = activation” value was inactive: -9.16%.

In the case of `Cc1ccc(NC(=O)CSc2nccn2Cc2ccco2)cc1Cl`, the Potency is active: 12.6 µM.

As for `Cc1ccc(CNC(=O)CCc2c(C)c3ccc(O)c(C)c3oc2=O)cc1`, the activity change, positive = activation is -12.4%.

`CC1CCc2c(sc(NC(=O)c3cc(-c4cccc(Cl)c4)on3)c2C(N)=O)C1` (stereo unspecified): the activity change, positive = activation stood at 2.14%.

For `O=C(CSc1cn(CCNC(=O)c2ccccc2F)c2ccccc12)Nc1ccccc1F`, the “activity change, positive = activation” value was inactive: -16.2%.

As for `COC(=O)Cc1c(C)c2cc3c(c(C)c2oc1=O)OCN(CCc1ccccc1F)C3`, the activity change, positive = activation is -25.5%.

As for `Cc1ccc(Cl)cc1-n1ncc2c(NC3CCCCC3)ncnc21`, the “activity change, positive = activation” value is inactive: -11.7%.

Consider `Cc1ccc(C(=O)O)cc1-n1c(C)ccc1-c1ccccc1`, for which the activity change, positive = activation turned out to be 5.75%.

As for `COc1cc(OC)c2c(C)c(CC(=O)NCCc3ccccc3OC)c(=O)oc2c1`, the activity change, positive = activation is 1.36%.

On to `CC(C)c1cc(C(=O)NC(C)c2ccccc2)no1` (stereo unspecified), for which the activity change, positive = activation came to 11.8%.

As to `COc1ccc(-c2cc(C(=O)NCc3ccc(F)cc3)no2)cc1`, the activity change, positive = activation was 0.931%.

Take `Cc1ccc(CNC(=O)Cn2c(=O)ccc3cc(S(=O)(=O)N4CCCC4)ccc32)cc1`: the “activity change, positive = activation” value is inactive: -19.3%.

For `Cc1nn(CC(=O)N2CCN(c3ccccc3)CC2)c(=O)c2cc3cc(F)ccc3n12`, the activity change, positive = activation was -0.0091%.

As to `CCCCNS(=O)(=O)c1ccc(NC(=O)c2c(-c3ccccc3)noc2C)cc1`, the activity change, positive = activation was -10.5%.

On to `Cc1ccnc(NC(c2cccc(O)c2)c2ccc3ccc(C)nc3c2O)c1` (stereo unspecified), for which the “activity change, positive = activation” value is inactive: -10.1%.

Take `COc1ccccc1N1CCN(S(=O)(=O)c2cc(C(=O)Nc3ccc(Oc4ccccc4)cc3)ccc2F)CC1`: the “activity change, positive = activation” value is inactive: -41.6%.

As for `COc1ccc(-c2nc3ccccc3s2)cc1NC(=O)c1cc(OC)c(OC)c(OC)c1`, the activity change, positive = activation was 70.8%.

On to `Cn1c(=O)c2c(-c3ccccc3)n3c(c2n(C)c1=O)C(c1ccc([N+](=O)[O-])cc1)Nc1ccccc1-3` (stereo unspecified), for which the activity change, positive = activation is -17.6%.

As for `Cc1oc2ccc(O)c(CN3CCCCC3C)c2c1C(=O)Nc1ccccc1` (stereo unspecified), the activity change, positive = activation is -13%.

`Cc1ccccc1CSCCNC(=O)C1CCN(S(=O)(=O)Cc2ccccc2)CC1`: the activity change, positive = activation is -5.33%.
